Data taken from PubChem BioAssay AID463173 (ICCB-Longwood Screening Facility, Harvard Medical School, 2010).
Among all 52,000 compounds or so, about 4,300 (8.3%) were called active. Rule as the data show it: active = survival mostly below about 52% (no sharp cut-off); inactive = mostly above about 56%. The list shows a part of the results.

test system: DeltatarO mutant; experiment: S. aureus survival, RN4220 and DeltatarO strains – OD600, teichoic acid synthesis inhibitors, primary screen (AID 463173); details: S. aureus RN4220 wild type/DeltatarO growth, OD600, 18 h, active compounds read low, screened at 18.75 µg/mL (by protocol)

| Structure (SMILES) | survival |
| --- | --- |
| COc1ccccc1CCNC(=O)Cc1ccc(NC(=O)N2CCSc3ncccc32)cc1 | inactive: 66% |
| CCOC(=O)c1ccccc1NC(=O)CN(c1cccc(C)c1C)S(=O)(=O)c1ccccc1 | inactive: 144% |
| Cc1ccc(-n2c(=O)c3c4c(sc3n(Cc3cc(=O)n5cc(Cl)ccc5n3)c2=O)CCC4)cc1C | inactive: 169% |
| CN(C)S(=O)(=O)c1ccc(S(=O)(=O)N2CCCC(C(=O)NC(C)(C)C)C2)cc1 (configuration not stated) | inactive: 102% |
| CC(=O)N1CCCc2cc(S(=O)(=O)N3CCCC(C(=O)NCc4ccccc4Cl)C3)ccc21 (configuration not stated) | inactive: 95% |
| O=C(Cn1c(=O)n(CCc2ccccc2)c(=O)c2cccnc21)Nc1ccc(F)cc1 | inactive: 64% |
| CCN(C1CCCCC1)S(=O)(=O)c1ccc(S(=O)(=O)NC2CC2)cc1 | inactive: 90% |
| CCC(=O)N1CCc2cc(S(=O)(=O)NC(C(=O)NCCc3ccc(OC)c(OC)c3)C(C)C)ccc21 (configuration not stated) | inactive: 129% |
| Cc1cc(C)c(NC(=O)c2nc3ccccc3nc2N2CCCCC2)c(C)c1 | inactive: 90% |
| COc1cc(NC(=O)C2CCN(C(=O)c3sc4nc[nH]c(=O)c4c3C)CC2)cc(OC)c1OC | inactive: 87% |
| CC1=NN(C(=S)c2ccccc2)C(C)(O)C1 (configuration not stated) | inactive: 79% |
| O=C(CCS(=O)(=O)c1cc(Br)cc2c1N(C(=O)C1CC1)CC2)N1CCN(c2cccc(Cl)c2)CC1 | inactive: 91% |
| COc1ccc(-c2nc3ccccc3n3c(-c4cccc(C)c4)c4c(=O)n(C)c(=O)n(C)c4c23)cc1OC | inactive: 69% |
| CCC(C)NC(=O)c1c(C)oc2ncn(CC(C)C)c(=O)c12 (configuration not stated) | inactive: 79% |
| O=C(O)CNC(=O)c1sc2ccccc2c1Cl | inactive: 84% |
| CC(C)OCCCNC(=O)C(=O)Nc1c2c(nn1-c1ccccc1)CS(=O)(=O)C2 | active: -5% |
| CCc1ccccc1NS(=O)(=O)c1ccc2nc(-c3ccccc3)[nH]c2c1 | inactive: 86% |
| O=C(O)c1ccc(-c2ccc(/C=N/N3C(=O)C4C(C3=O)C3C=CC4C34CC4)o2)cc1 (configuration not stated) | inactive: 91% |
| Cc1ccc(N2C(=O)c3n[nH]c(C)c3C2c2ccc(Cl)cc2)cc1 (configuration not stated) | active: 6% |
| Cc1cc(C)cc(NC(=O)CSc2oc(-c3ccccc3)nc2S(=O)(=O)c2ccc(Cl)cc2)c1 | inactive: 73% |
| CCOC(=O)c1ccccc1NC(=O)Cn1ncc2c1-c1ccccc1OC2 | inactive: 73% |
| CCOC(=O)c1[nH]c2c(c1Cc1ccccc1OC)C(=O)CC(c1ccc(OC)cc1)C2 (configuration not stated) | inactive: 87% |

| Structure (SMILES) | survival |
| --- | --- |
| Cc1ccccc1CSc1nnc2[nH]c(=O)cc(-c3ccccc3)n12 | inactive: 67% |
| CCc1ccc(-n2c(=O)c3c4c(sc3n(Cc3cc(=O)n5c(C)cccc5n3)c2=O)CCC4)cc1 | inactive: 133% |
| O=C(Cc1ccc(F)cc1)N/N=C/c1ccc(-c2ccc(Cl)c(C(=O)O)c2)o1 | inactive: 95% |
| Cc1ccc(NC(=O)Cn2nc(C(F)(F)F)c3c2CCCC3)cc1C | inactive: 63% |
| CC1CCc2nc3ncn(Cc4ccc(Cl)cc4)c(=O)c3cc2C1 (configuration not stated) | inactive: 85% |
| Cc1ccc2nc(-c3ccc(Cl)c(NC(=O)c4ccc5c(c4)OCCO5)c3)oc2c1 | inactive: 71% |
| Cc1nnc(NCc2ccc(Cl)cc2)c2c1nnn2Cc1ccc(F)cc1 | inactive: 79% |
| CCCCOc1ccc(C(=O)Nc2ccc(S(=O)(=O)Nc3nc(C)cc(C)n3)cc2)cc1 | inactive: 60% |
| COC(=O)c1ccccc1NC(=O)c1cc(-c2ccc(Cl)cc2)on1 | inactive: 73% |
| NC(=S)N/N=C/c1ccc(Sc2cccc3cccnc23)o1 | inactive: 104% |
| O=C(/C=C/c1ccccc1)C1=C(O)C(=O)N(CCO)C1c1ccc2c(c1)OCO2 (configuration not stated) | inactive: 79% |
| O=C(Cn1nc(-c2ccccc2)c2cnc3ccccc3c21)Nc1ccccc1 | inactive: 76% |
| Cc1ccc(Cn2nnc3sc4c(c3c2=O)CCC(C)C4)cc1 (configuration not stated) | active: 54% |
| CCC(=O)N1CCc2cc(CNS(=O)(=O)c3c(C)cc(C)cc3C)ccc21 | inactive: 79% |
| Cc1cc(C)nc(NS(=O)(=O)c2ccc(NC(=O)c3ccccc3O)cc2)n1 | inactive: 139% |
| CCCCOc1ccc(C(=O)N2CC(=O)Nc3ccc(Br)cc3C2c2ccc(F)cc2)cc1 (configuration not stated) | active: 39% |
| COc1ccc2c(Sc3ccccc3)c(C(=O)NCC(C)c3ccccc3)[nH]c2c1 (configuration not stated) | inactive: 84% |
| Cc1cc(C)cc(-n2c(SCC(=O)N3CCCC3)nc3c([nH]c4ccccc43)c2=O)c1 | inactive: 89% |
| Cc1nn(C(=O)c2ccccc2)c2c1C(=O)CC(C)(C)C2 | inactive: 74% |
| Cn1c(=O)n(-c2ccc3c(c2)OCO3)c2nc(-c3ccc(Cl)cc3)nc(C(N)=O)c21 | inactive: 61% |
| CCC(c1nnnn1Cc1ccccc1)N(Cc1cccs1)Cc1cc2ccc(C)cc2[nH]c1=O (configuration not stated) | inactive: 103% |
| O=C(CCC1N=C2c3ccccc3N=C(SCc3ccccc3Cl)N2C1=O)NCCc1ccccc1 (configuration not stated) | inactive: 96% |

| Structure (SMILES) | survival |
| --- | --- |
| Cc1ccccc1NC(=O)CSc1nc(-c2ccc(F)cc2)nc2c1Cc1ccccc1O2 | inactive: 86% |
| Cc1nc2ccccc2n1CCc1nc2c3ccccc3nc(SCC(=O)Nc3cccc(C(F)(F)F)c3)n2n1 | inactive: 85% |
| CCc1ccc2ncc(S(=O)(=O)c3ccc(Cl)cc3)c(N3CCN(CC)CC3)c2c1 | inactive: 78% |
| O=C(/C=C/c1ccccc1)NC1CCSC1=O (configuration not stated) | inactive: 107% |
| CC(C)CN(CCCNC(=O)c1cc(-c2ccc(Br)s2)nc2ccccc12)CC(C)C | inactive: 91% |
| COc1ccc(CCNC(=O)C2(c3cccs3)CCOCC2)cc1 | inactive: 122% |
| O=C(Nc1nonc1-c1ccc(Cl)cc1)c1ccccc1F | inactive: 49% |
| COc1ccc(N2CC(NC(=O)/C=C\c3ccc4c(c3)OCO4)CC2=O)cc1 (configuration not stated) | inactive: 78% |
| COc1ccc(NC(=O)C2CCN(S(=O)(=O)c3ccc4[nH]c(=O)ccc4c3)CC2)cc1Cl | inactive: 124% |
| COc1cc(OC)c(NC(=O)C(c2ccccc2)N2Cc3ccccc3C2=O)cc1Cl (configuration not stated) | inactive: 73% |
| CCS(=O)(=O)N1CC(=O)N(c2ccc(Cl)cc2C)C(C)(C(=O)NC2CCCCCC2)C1 (configuration not stated) | inactive: 83% |
| CCc1nnc(SCc2cccc(F)c2)c2cc3sc(C)cc3n12 | inactive: 74% |
| CCOc1ccc(N2CC(c3nc4ccccc4n3CCCOc3ccccc3OC)CC2=O)cc1 (configuration not stated) | inactive: 81% |
| CCS(=O)(=O)N1CCN(C(=O)c2ccccc2Cl)CC1 | inactive: 82% |
| O=C(Nc1ccc(F)c(Cl)c1)C1CCN(C(=O)c2ccc(F)cc2)CC1 | inactive: 68% |
| N#Cc1ccccc1Cn1c(=O)n(CCCC(=O)NCc2ccccc2Cl)c(=O)c2ccccc21 | inactive: 129% |
| O=C(NCc1ccccc1Cl)C1CCN(S(=O)(=O)Cc2ccccc2)CC1 | inactive: 80% |
| COc1ccc(Cl)cc1NC(=O)CSC1=Nc2ccccc2C2=NC(CCC(=O)NCc3ccc(F)cc3)C(=O)N12 (configuration not stated) | inactive: 107% |
| Cc1nc2ccn(Cc3ccco3)c(=O)c2cc1C(=O)NCc1ccccc1F | inactive: 86% |
| Cc1nnc(SCc2cc(=O)n3cccc(C)c3n2)s1 | inactive: 97% |
| COCCCNC(=O)c1ccc(Cn2c(=O)c3ccccc3n(CC(=O)Nc3c(C)cccc3C)c2=O)cc1 | inactive: 80% |
| CCOc1cc(C(=O)Nc2ccc3nc(Nc4cccc(Cl)c4)cc(C)c3c2)cc(OCC)c1OCC | inactive: 98% |

| Structure (SMILES) | survival |
| --- | --- |
| Cc1cccc(CCNC(=O)C2CCC(CNS(=O)(=O)c3ccccc3)CC2)c1 (configuration not stated) | inactive: 77% |
| CCCC(CCC)C(=O)Nc1cccc(-c2nc3cccnc3s2)c1C | inactive: 110% |
| COc1cccc(-c2nc(CS(=O)(=O)CC(=O)NCCc3ccc(OC)cc3OC)c(C)o2)c1 | inactive: 58% |
| O=C(NCCc1csc2nc(-c3ccccc3F)nn12)c1ccccc1C(F)(F)F | inactive: 82% |
| COc1cccc(CN(C(=O)c2ccc(C(C)(C)C)cc2)C2CCS(=O)(=O)C2)c1 (configuration not stated) | inactive: 70% |
| O=C(CN1CCC(N2CCCCC2)CC1)Nc1ccc2c(c1)OCCO2 | inactive: 96% |
| CCOC(=O)Cn1c(=O)oc2cc(S(=O)(=O)N3CCN(c4ccccc4OC)CC3)ccc21 | inactive: 65% |
| O=C(CN1C(=O)c2cccc3cccc1c23)Nc1ccccc1 | inactive: 70% |
| OC1(c2ccccc2)CCN(Cc2ccccc2)CC1 | inactive: 73% |
| CCOC(=O)c1c(NC(=O)CCCOc2ccc(Cl)cc2)sc2c1CCC2 | active: 17% |
| COc1ccc(CNC(=O)c2ccc(NC(=O)N3CCSc4ncccc43)cc2)cc1OC | inactive: 76% |
| COc1ccc(-c2oc3ncn4nc(COc5ccc(C)cc5)nc4c3c2-c2ccc(OC)cc2)cc1 | inactive: 82% |
| COc1ccc(NC(=O)c2cnn(-c3ccc(F)cc3F)c2C2CCN(C(=O)OC(C)(C)C)CC2)cc1Cl | inactive: 72% |
| O=C(C1CCCN(S(=O)(=O)c2cccc3nonc23)C1)N1CCN(c2ccccc2Cl)CC1 (configuration not stated) | inactive: 69% |
| COc1ccc(CCNC(=O)c2ccc3nc(Cc4ccccc4)oc3c2)cc1OC | inactive: 99% |
| COc1ccc(N(CC(=O)NCCc2ccccc2)S(=O)(=O)c2ccc(OC)c(OC)c2)cc1 | inactive: 61% |
| Cc1cc(=O)[nH]c(SCc2nnc(-c3ccccc3)o2)n1 | inactive: 103% |
| CCCOc1ccc(C(=O)Nc2ccc3nn(-c4ccc(OC)c(Cl)c4)nc3c2)cc1 | inactive: 128% |
| Cc1ccccc1NC(=O)c1c(C)oc2ccc(O)c(CN3CCC(C)CC3)c12 | inactive: 84% |
| COCCCNC(=O)c1ccc(Cn2c(=O)c3ccccc3n(Cc3ccccc3C)c2=O)cc1 | inactive: 103% |
| CCOc1ccc(-c2nnc(SCC(=O)Nc3cc(F)ccc3F)o2)cc1 | inactive: 60% |
